Laboratory results as given in PubChem BioAssay (NCATS).
Values joined by “and” are separate entries in the source; they are usually repeats but may differ in a detail not shown here. Equal values may be shown once. The shares of active, inactive and inconclusive entries below differ from those in the screen. Potencies of inconclusive entries are doubtful fits and often do not repeat. Active and inactive are the calls of the source. The call rests on the fitted dose curve; in most records, active means well fitted inhibition curve with a large enough effect; inconclusive means small, poorly fitted or top-dose-only effect; inactive means flat fitted curve, though single readings scatter.

test: Primary qHTS for inhibitors of nuclear receptor binding SET domain protein 2 (NSD2) in an isogenic RCH-ACV NSD2 p.E1099K mutant (9B) (AID 1645876); conditions: RCH-ACV (leukaemia line) NSD2 E1099K (9B) viability, CellTiter-Glo, 72 h; series mostly up to 44.9 µM; activity change, negative = viability loss: at the top concentration; further: nearly all actives have a fitted effect of over 70% in size
On the % scale 0 is the no-effect control and ±100 the full control effect; potency means the concentration at half of the fitted maximal effect; tags describe the fitted curve by direction and shape.

| SMILES | Potency | outcome | activity change, negative = viability loss |
| --- | --- | --- | --- |
| Nc1ccc(O)c([N+](=O)[O-])c1 | inconclusive: 38.6 µM [inhibitor, single point] |  |  |
| O=C(O)c1cc(O)c(O)c(O)c1 | inconclusive: 26.6 µM [inhibitor, single point] |  |  |
| CN1CCN(C2Cc3ccccc3Sc3ccc(Cl)cc32)CC1 (stereo unspecified) | inconclusive: 29.9 µM [inhibitor, single point] |  |  |
| COc1ccc(O)cc1 | inconclusive: 18.8 µM [inhibitor, single point] |  |  |
| C=C[C@H]1CN2CC[C@H]1C[C@H]2[C@H](O)c1ccnc2ccc(OC)cc12 | inconclusive: 23 µM [inhibitor, partial curve] |  |  |
| CNC(=O)c1ccc(C)c(-n2c(C)cc(OCc3ccc(F)cc3F)c(Br)c2=O)c1 | inconclusive: 16.6 µM [inhibitor, partial curve] |  |  |
| C[C@](N)(Cc1ccc(O)c(O)c1)C(=O)O | inactive and inconclusive: 37.2 µM [inhibitor, single point] |  |  |
| O=C(O)c1ccccc1Nc1cccc(C(F)(F)F)c1 | inconclusive: 33.5 µM [inhibitor, partial curve, poor fit] |  |  |
| C[C@@H]1CN(Cc2ccc(F)cc2)[C@@H](C)CN1C(=O)c1cc2c(C(=O)C(=O)N(C)C)cn(C)c2cc1Cl | inconclusive: 18.3 µM [inhibitor, partial curve] |  |  |
| c1ccc2sc(SSc3nc4ccccc4s3)nc2c1 | inconclusive: 14.6 µM [inhibitor, single point] |  |  |
| c1ccc2occc2c1 | inconclusive: 48.6 µM [inhibitor, single point] |  |  |
| O=C(/C=C/c1ccccc1)NCCO | inconclusive: 23.7 µM [inhibitor, single point] |  |  |
| CCCCCCCCCCCC(=O)[O][Sn]([CH2]CCC)([CH2]CCC)[O]C(=O)CCCCCCCCCCC |  | inactive |  |
| CN1CCC(=C2c3ccccc3CCc3sccc32)CC1 | inconclusive: 23.5 µM [inhibitor, single point] |  |  |
| c1ccc2c(Cc3c[nH]c4ccccc34)c[nH]c2c1 | inconclusive: 18.6 µM [inhibitor, partial curve] |  |  |
| Nc1ccc(O)c(C(=O)O)c1 | inconclusive: 21.1 µM [inhibitor, single point] |  |  |

| SMILES | Potency | outcome | activity change, negative = viability loss |
| --- | --- | --- | --- |
| CCCCCCOc1ccccc1C(N)=O | inconclusive: 21.1 µM [inhibitor, single point] |  |  |
| CCC1(c2ccccc2)C(=O)NCNC1=O | inactive |  |  |
| Cc1c(NC(=O)c2ccc(C(C)(C)C)cc2)cccc1-c1cn(C)c(=O)c(Nc2ccc(C(=O)N3CCOCC3)cc2)n1 | inconclusive: 29.1 µM [inhibitor, partial curve, poor fit] |  |  |
| N=C(N)N |  |  | inactive: -4.74% |
| CC(=O)Oc1ccccc1C(=O)Nc1ncc([N+](=O)[O-])s1 | inconclusive: 29.9 µM [inhibitor, single point] |  |  |
| Nc1cc(-c2ccncc2)c[nH]c1=O |  | inactive |  |
| Oc1ccc(/C=C/c2cc(O)cc(O)c2)cc1 | inconclusive: 18.8 µM [inhibitor, single point] |  |  |
| CCc1nn(CCCN2CCN(c3cccc(Cl)c3)CC2)c(=O)n1CCOc1ccccc1 | inconclusive: 29.9 µM [inhibitor, single point] |  |  |
| CCN1/C(=C/C(C)=O)Sc2ccc(OC)cc21 | inconclusive: 14.6 µM [inhibitor, single point] |  |  |
| CCCCCCCCOc1ccccc1C(=O)Nc1ccc(C(=O)OCC[N+](C)(CC)CC)cc1 | inconclusive: 33.5 µM [inhibitor, single point] |  |  |
| O=c1c2ccccc2nc2n1CCc1c-2[nH]c2ccccc12 |  |  | inactive: -6.17% |
| O=C1CCCC2=C1C(c1[nH]ncc1Cl)N=C(Nc1nc3ccccc3o1)N2 (stereo unspecified) | inconclusive: 25.9 µM [inhibitor, single point] and inactive |  |  |
| O=C1c2c(O)ccc(O)c2C(=O)c2c(NCCNCCO)ccc(NCCNCCO)c21 | inconclusive: 0.0106 µM [inhibitor, full curve, poor fit] |  |  |
| NC(=O)Cc1cccc(C(=O)c2ccccc2)c1N | inconclusive: 21.1 µM [inhibitor, single point] |  |  |
| Cc1ccc(NC(=O)c2ccc(CN3CCN(C)CC3)cc2)cc1Nc1nccc(-c2cccnc2)n1 | inconclusive: 7.28 µM [inhibitor, partial curve] |  |  |
